# The supplement of paper PMC4604168 (melanoma cell lines)
# Some of the results follow. Many values rest on one well or one pass, so single values are uncertain.
# How the values were obtained:
# Test in all cases: cell count relative to DMSO control; melanoma cells; higher = more viable cells
# Conditions in all cases: library dose: standard library concentration; 72 h
# 501Mel = tested on: 501Mel
# A101D = tested on: A101D
# A2058 = tested on: A2058
# A375 = tested on: A375
# 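Also: cells treated in 1,536-well plates, then fixed and DAPI-stained, with nuclei counted from automated high-throughput microscope images.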
SMILES,cell count (501Mel) [%],cell count (A101D) [%],cell count (A2058) [%],cell count (A375) [%]
"OCc1c[nH]c2ccccc12 [Indole-3-carbinol] + COc1ccc(COc2ccc(Cc3cnc(N)nc3N)cc2OC)cc1 [GW2580] (first compound 4 µM, partner dose 5 µM)",73.5,90.6,81.4,60.5
"COCC[n+]1c2c(n(Cc3cnccn3)c1C)C(=O)c1ccccc1C2=O + COc1cc2ncnc(Nc3ccc(Oc4ccccc4)cc3)c2cc1OC [SrcI1] (first compound 0.002 µM, partner dose 10 µM)",68.6,63.4,23.1,49.2
"OCc1c[nH]c2ccccc12 [Indole-3-carbinol] + O=C(O)C(=O)Nc1sc2c(c1C(=O)O)CCNC2 [TCS401] (first compound 4 µM, partner dose 8.33333 µM)",81.1,134,94.9,180
"C#Cc1cccc(Nc2ncnc3cc(OCCOC)c(OCCOC)cc23)c1 [erlotinib] + COc1ccc2c(c1)CCC1C2CCC2(C)C(NCCCCCCN3C(=O)C=CC3=O)CCC12 [U73122] (first compound 4 µM, partner dose 2 µM)",69.9,27.6,57.1,88.3
"C#Cc1cccc(Nc2ncnc3cc(OCCOC)c(OCCOC)cc23)c1 [erlotinib] + Oc1nc(-c2ccc(C(F)(F)F)cc2)nc2c1CSCC2 [XAV939] (first compound 4 µM, partner dose 10 µM)",82.3,71,72,120
"Clc1ccc(Nc2nnc(Cc3ccncc3)c3ccccc23)cc1 [vatalanib] + COc1cc2ncnc(Nc3ccc(Oc4ccccc4)cc3)c2cc1OC [SrcI1] (first compound 10 µM, partner dose 10 µM)",65.5,55.5,74.9,93.7
"C#Cc1cccc(Nc2ncnc3cc(OCCOC)c(OCCOC)cc23)c1 [erlotinib] + O=C(O)C(=O)Nc1sc2c(c1C(=O)O)CCNC2 [TCS401] (first compound 4 µM, partner dose 8.33333 µM)",59.8,83.5,108,157
"Nc1cccc2c1CN(C1CCC(=O)NC1=O)C2=O (centres undefined) [lenalidomide] + CCCCCCCCCCCC1=C(O)C(=O)C=C(O)C1=O [Embelin] (first compound 5 µM, partner dose 6 µM)",73.3,86.4,98,101
"OCc1c[nH]c2ccccc12 [Indole-3-carbinol] + COC(=O)c1sccc1S(=O)(=O)Nc1ccc(Nc2ccccc2)cc1OC [GSK0660] (first compound 4 µM, partner dose 5 µM)",90.6,106,112,124
"C#Cc1cccc(Nc2ncnc3cc(OCCOC)c(OCCOC)cc23)c1 [erlotinib] + CCc1ccc(CCOc2ccc(CC3SC(=O)NC3=O)cc2)nc1 [pioglitazone] (first compound 4 µM, partner dose 10 µM)",63.9,81.1,85.3,123
"OCc1c[nH]c2ccccc12 [Indole-3-carbinol] + CC(C)CCN1c2nc(Nc3cc(F)c(O)c(F)c3)ncc2N(C)C(=O)C1C [BID1870] (first compound 4 µM, partner dose 1 µM)",67.4,68.2,86,56
"Nc1cccc2c1CN(C1CCC(=O)NC1=O)C2=O (centres undefined) [lenalidomide] + CC(C)CCN1c2nc(Nc3cc(F)c(O)c(F)c3)ncc2N(C)C(=O)C1C [BID1870] (first compound 5 µM, partner dose 1 µM)",74.3,64.3,98,91.6
"C#Cc1cccc(Nc2ncnc3cc(OCCOC)c(OCCOC)cc23)c1 [erlotinib] + CCCCCCCCCCCC1=C(O)C(=O)C=C(O)C1=O [Embelin] (first compound 4 µM, partner dose 6 µM)",74.2,61.2,95.3,113
"C#Cc1cccc(Nc2ncnc3cc(OCCOC)c(OCCOC)cc23)c1 [erlotinib] + O=C(Nc1ccccc1)c1cc([N+](=O)[O-])ccc1Cl [GW9662] (first compound 4 µM, partner dose 10 µM)",52.5,59.6,88.1,107
"Clc1ccc(Nc2nnc(Cc3ccncc3)c3ccccc23)cc1 [vatalanib] + COc1ccc2c(c1)CCC1C2CCC2(C)C(NCCCCCCN3C(=O)C=CC3=O)CCC12 [U73122] (first compound 10 µM, partner dose 2 µM)",57.1,38.7,38.1,74
"Cn1c(Nc2ccc(C(F)(F)F)cc2)nc2cc(Oc3ccnc(-c4ncc(C(F)(F)F)[nH]4)c3)ccc21 + COc1cc2ncnc(Nc3ccc(Oc4ccccc4)cc3)c2cc1OC [SrcI1] (first compound 0.4 µM, partner dose 10 µM)",33.3,58.4,56.2,72.6

SMILES,cell count (501Mel) [%],cell count (A101D) [%],cell count (A2058) [%],cell count (A375) [%]
"COCC[n+]1c2c(n(Cc3cnccn3)c1C)C(=O)c1ccccc1C2=O + O=C(Nc1ccccc1)c1cc([N+](=O)[O-])ccc1Cl [GW9662] (first compound 0.002 µM, partner dose 10 µM)",64.6,61.5,17.9,111
"OCc1c[nH]c2ccccc12 [Indole-3-carbinol] + COc1ccc2c(c1)CCC1C2CCC2(C)C(NCCCCCCN3C(=O)C=CC3=O)CCC12 [U73122] (first compound 4 µM, partner dose 2 µM)",81.6,57.6,49.9,83.7
"Clc1ccc(Nc2nnc(Cc3ccncc3)c3ccccc23)cc1 [vatalanib] + CCc1ccc(CCOc2ccc(CC3SC(=O)NC3=O)cc2)nc1 [pioglitazone] (first compound 10 µM, partner dose 10 µM)",71,66.5,93.7,96.2
"Cn1c(Nc2ccc(C(F)(F)F)cc2)nc2cc(Oc3ccnc(-c4ncc(C(F)(F)F)[nH]4)c3)ccc21 + COc1ccc2c(c1)CCC1C2CCC2(C)C(NCCCCCCN3C(=O)C=CC3=O)CCC12 [U73122] (first compound 0.4 µM, partner dose 2 µM)",44.3,11.6,35.6,44.5
"Clc1ccc(Nc2nnc(Cc3ccncc3)c3ccccc23)cc1 [vatalanib] + O=C(O)C(=O)Nc1sc2c(c1C(=O)O)CCNC2 [TCS401] (first compound 10 µM, partner dose 8.33333 µM)",70.6,79.6,89.6,120
"Clc1ccc(Nc2nnc(Cc3ccncc3)c3ccccc23)cc1 [vatalanib] + N#Cc1c(O)c2c(-c3ccc(-c4ccccc4O)cc3)csc2[nH]c1=O [A769662] (first compound 10 µM, partner dose 10 µM)",71.8,83.2,97.4,99.4
"OCc1c[nH]c2ccccc12 [Indole-3-carbinol] + COc1cc(N2CCC(N3CCN(C)CC3)CC2)ccc1Nc1ncc(Cl)c(Nc2ccccc2S(=O)(=O)C(C)C)n1 [NVP-TAE684] (first compound 4 µM, partner dose 0.4 µM)",75.4,69.9,54.4,78.6
"Cn1c(Nc2ccc(C(F)(F)F)cc2)nc2cc(Oc3ccnc(-c4ncc(C(F)(F)F)[nH]4)c3)ccc21 + COc1cc(N2CCC(N3CCN(C)CC3)CC2)ccc1Nc1ncc(Cl)c(Nc2ccccc2S(=O)(=O)C(C)C)n1 [NVP-TAE684] (first compound 0.4 µM, partner dose 0.4 µM)",34,51.7,48.3,59.6
"OCc1c[nH]c2ccccc12 [Indole-3-carbinol] + c1cc(-c2cnn3cc(-c4ccc(OCCN5CCCCC5)cc4)cnc23)ccn1 [Dorsomorphin] (first compound 4 µM, partner dose 2 µM)",59.5,92.5,95.7,78
"Clc1ccc(Nc2nnc(Cc3ccncc3)c3ccccc23)cc1 [vatalanib] + Cn1cc(/C=C2\C(=O)Nc3cccnc32)c2ccccc21 [GW441756] (first compound 10 µM, partner dose 2 µM)",76.7,82.6,86.5,101
"OCc1c[nH]c2ccccc12 [Indole-3-carbinol] + O=C1NC(=O)/C(=C/c2ccc(-c3ccc(F)cc3O)o2)S1 [AS252424] (first compound 4 µM, partner dose 5 µM)",91.4,94.9,94.7,108
"O=C(CCCCCCC(=O)Nc1ccccc1)NO [vorinostat] + O=C1NC(=O)/C(=C/c2ccc(-c3ccc(F)cc3O)o2)S1 [AS252424] (first compound 0.4 µM, partner dose 5 µM)",67.1,77.7,88.5,151
"OCc1c[nH]c2ccccc12 [Indole-3-carbinol] + O=C(Nc1ccccc1)c1cc([N+](=O)[O-])ccc1Cl [GW9662] (first compound 4 µM, partner dose 10 µM)",76.2,76,113,144
"C#Cc1cccc(Nc2ncnc3cc(OCCOC)c(OCCOC)cc23)c1 [erlotinib] + COc1ccc(-c2ccc3c(N4CCOCC4)nc(N4C[C@@H](C)O[C@@H](C)C4)nc3n2)cc1CO [KU0063794] (first compound 4 µM, partner dose 0.1 µM)",60.8,91.1,76.7,91.8
"COCC[n+]1c2c(n(Cc3cnccn3)c1C)C(=O)c1ccccc1C2=O + c1cc(-c2cnn3cc(-c4ccc(OCCN5CCCCC5)cc4)cnc23)ccn1 [Dorsomorphin] (first compound 0.002 µM, partner dose 2 µM)",47.2,55.9,16.8,55.9
